Test results reported in patent EP4725954A1, “MODIFIED PEPTIDES SUCH AS POLYPEPTIDES LA-19 AND TM-19 HAVING ANTI-AGING AND REPAIRING EFFECTS AND USE THEREOF” (Anhui Dexin Huahai Biological Technology Co. Ltd., priority 2023, dated 2025).
At least one peptide structure holds a part that was inferred or is arguable (an end, a ring closure or a residue). Some entries repeat one wording, which the source may state once for all of them. Where no end group is shown, it is not given here.

Key:
[1] = tested on: Human keratinocytes (HaCaT cells); assay: Antioxidant activity test on keratinocytes, overall statements (UV-induced oxidative damage model); format: cell-based; conditions: in words; for antioxidant activity: compared with the model group; for antioxidant capacity of cells: compared with polypeptide Acein
TNF-α = assay: Anti-inflammatory activity test on keratinocytes: TNF-α ELISA; format: cell-based, Human; conditions: UVB 30 mJ/cm^2, HaCaT supernatant, blank 2.890, model 10.812, Mean ± SEM
Method: (§1) Interleukin-6 ELISA assay kit (Shanghai Beyotime Biotechnology Co., Ltd.); tumor necrosis factor α ELISA assay kit (Shanghai Beyotime Biotechnology Co., Ltd.); 6-well plate (Wuxi NEST Biotechnology Co., Ltd.); and palmitoyl tetrapeptide-7 (Shenzhen Jianyuan Pharmaceutical Technology Co., Ltd.). Other experimental materials and instruments are the same as those in Examples 1, 2, and 3.
(§2) The cells were counted and calculated. […] After 24 hours of incubation, cell UV modeling was performed. The UVB lamp tube was turned on, and the radiation intensity was measured with a UV irradiance meter. When the radiation intensity reached 500 µW/cm^2, the uncovered 6-well plate was placed and irradiated for 1 minute such that the radiation dose was up to 30 mJ/cm^2. At the end of the radiation, the 6-well plate was covered and placed into the cell incubator.

[2] = tested on: Human keratinocytes (HaCaT cells); assay: Anti-inflammatory activity test on keratinocytes, overall statements (UV-induced cell inflammation model); format: cell-based; conditions: in words; for anti-inflammatory ability: compared with the model group; for anti-inflammatory efficacy: compared with polypeptide Acein
catalase (CAT) = assay: Antioxidant activity test on keratinocytes: CAT assay kit; format: cell-based, Human; conditions: UVB 30 mJ/cm^2, HaCaT lysate, blank 2.683, model 2.288, Mean ± SEM
malondialdehyde (MDA) = assay: Antioxidant activity test on keratinocytes: cell MDA assay kit; format: cell-based, Human; conditions: UVB 30 mJ/cm^2, HaCaT lysate, blank 0.413, model 1.288, Mean ± SEM
[3] = tested on: Human keratinocytes (HaCaT cells); assay: Cytotoxicity test of the polypeptides on keratinocytes (CCK-8); conditions: 48 hours, relative to blank group, Mean ± SEM
[4] = tested on: Superoxide dismutase (SOD); assay: Antioxidant activity test on keratinocytes: SOD assay kit; format: cell-based, Human; conditions: UVB 30 mJ/cm^2, HaCaT lysate, blank 96.406, model 81.925, Mean ± SEM
[5] = tested on: Human keratinocytes (HaCaT cells); format: cell-based; conditions: in words; for anti-UV damage ability: compared with the model group; for slowing of UV irradiation-induced inhibition of cell growth: compared with polypeptide Acein
IL-6 = assay: Anti-inflammatory activity test on keratinocytes: IL-6 ELISA; format: cell-based, Human; conditions: UVB 30 mJ/cm^2, HaCaT supernatant, blank 10.619, model 18.622, Mean ± SEM
Method: as §1, §2

For LQSSLRALRQMGGG [P3], the antioxidant activity [1] was “certain antioxidant activity”, the “TNF-α activity (pg/mgprot)” value (TNF-α; 1 µM) was 6.542±0.202 pg/mgprot and the “TNF-α activity (pg/mgprot)” value (TNF-α; 10 µM) was 5.960±1.257 pg/mgprot. The “TNF-α activity (pg/mgprot)” value (TNF-α; 100 µM) was 5.720±0.318 pg/mgprot, the anti-inflammatory ability [2] was “certain anti-inflammatory ability” and the “CAT Activity (U/mgprot)” value (catalase (CAT); 1 µM) was 2.781±0.051 U/mgprot. The “CAT Activity (U/mgprot)” value (catalase (CAT); 10 µM) was 2.872±0.183 U/mgprot, the “CAT Activity (U/mgprot)” value (catalase (CAT); 100 µM) was 3.224±0.109 U/mgprot and the “MDA Activity (U/mgprot)” value (malondialdehyde (MDA); 1 µM) was 1.018±0.083 U/mgprot. For the same substance, the “MDA Activity (U/mgprot)” value (malondialdehyde (MDA); 10 µM) was 1.007±0.028 U/mgprot, the “MDA Activity (U/mgprot)” value (malondialdehyde (MDA); 100 µM) was 0.938±0.067 U/mgprot and the “Cell Viability (%)” value ([3]; 1 nM) was 100.00±4.43%. The “Cell Viability (%)” value ([3]; 10 nM) was 104.23±7.30%, the “Cell Viability (%)” value ([3]; 100 nM) was 102.80±3.65% and the “Cell Viability (%)” value ([3]; 1 µM) was 100.74±3.63%. For the same substance, the “Cell Viability (%)” value ([3]; 10 µM) was 104.80±3.48%, the “Cell Viability (%)” value ([3]; 100 µM) was 102.71±4.61% and the “SOD Activity (U/mgprot)” value ([4]; 1 µM) was 92.369±0.576 U/mgprot. The “SOD Activity (U/mgprot)” value ([4]; 10 µM) was 93.142±1.058 U/mgprot, the “SOD Activity (U/mgprot)” value ([4]; 100 µM) was 87.552±1.060 U/mgprot and the anti-UV damage ability [5] was “certain anti-UV damage ability”.
In the case of LQSSLRALRQMGGGTKAAA-NH2 [P7], the “IL-6 activity (pg/mgprot)” value (IL-6; 1 µM) was 11.904±0.664 pg/mgprot, the “IL-6 activity (pg/mgprot)” value (IL-6; 10 µM) was 11.835±0.310 pg/mgprot and the “IL-6 activity (pg/mgprot)” value (IL-6; 100 µM) was 11.829±0.333 pg/mgprot. For the same substance, the “antioxidant capacity of cells” value [1] was “improve the antioxidant capacity of cells more significantly”, the antioxidant activity [1] was “certain antioxidant activity” and the “TNF-α activity (pg/mgprot)” value (TNF-α; 1 µM) was 8.967±0.581 pg/mgprot. For the same substance, the “TNF-α activity (pg/mgprot)” value (TNF-α; 10 µM) was 9.409±0.509 pg/mgprot, the “TNF-α activity (pg/mgprot)” value (TNF-α; 100 µM) was 10.506±1.189 pg/mgprot and the anti-inflammatory efficacy [2] was “better anti-inflammatory efficacy”. The anti-inflammatory ability [2] was “certain anti-inflammatory ability”, the “CAT Activity (U/mgprot)” value (catalase (CAT); 1 µM) was 3.342±0.118 U/mgprot and the “CAT Activity (U/mgprot)” value (catalase (CAT); 10 µM) was 3.120±0.118 U/mgprot. For the same substance, the “CAT Activity (U/mgprot)” value (catalase (CAT); 100 µM) was 2.656±0.081 U/mgprot, the “MDA Activity (U/mgprot)” value (malondialdehyde (MDA); 1 µM) was 0.920±0.031 U/mgprot and the “MDA Activity (U/mgprot)” value (malondialdehyde (MDA); 10 µM) was 1.038±0.026 U/mgprot. The “MDA Activity (U/mgprot)” value (malondialdehyde (MDA); 100 µM) was 1.098±0.010 U/mgprot, the “SOD Activity (U/mgprot)” value ([4]; 1 µM) was 99.309±0.137 U/mgprot and the “SOD Activity (U/mgprot)” value ([4]; 10 µM) was 96.129±1.205 U/mgprot. For the same substance, the “SOD Activity (U/mgprot)” value ([4]; 100 µM) was 84.359±2.235 U/mgprot, the “slowing of UV irradiation-induced inhibition of cell growth” value [5] was “slow down the UV irradiation-induced inhibition of cell growth more significantly” and the anti-UV damage ability [5] was “certain anti-UV damage ability”.
TKAAA [Acein, reference compound] was tested, and the “IL-6 activity (pg/mgprot)” value (IL-6; 1 µM) was 20.356±0.479 pg/mgprot, the “IL-6 activity (pg/mgprot)” value (IL-6; 10 µM) was 20.421±0.919 pg/mgprot and the “IL-6 activity (pg/mgprot)” value (IL-6; 100 µM) was 17.586±1.310 pg/mgprot. For the same substance, the antioxidant activity [1] was “certain antioxidant activity”, the “TNF-α activity (pg/mgprot)” value (TNF-α; 1 µM) was 6.129±0.582 pg/mgprot and the “TNF-α activity (pg/mgprot)” value (TNF-α; 10 µM) was 6.072±0.746 pg/mgprot. For the same substance, the “TNF-α activity (pg/mgprot)” value (TNF-α; 100 µM) was 5.540±0.284 pg/mgprot, the anti-inflammatory ability [2] was “certain anti-inflammatory ability” and the “CAT Activity (U/mgprot)” value (catalase (CAT); 1 µM) was 2.152±0.068 U/mgprot. The “CAT Activity (U/mgprot)” value (catalase (CAT); 10 µM) was 2.180±0.021 U/mgprot, the “CAT Activity (U/mgprot)” value (catalase (CAT); 100 µM) was 2.994±0.104 U/mgprot and the “MDA Activity (U/mgprot)” value (malondialdehyde (MDA); 1 µM) was 1.209±0.072 U/mgprot. For the same substance, the “MDA Activity (U/mgprot)” value (malondialdehyde (MDA); 10 µM) was 1.250±0.024 U/mgprot, the “MDA Activity (U/mgprot)” value (malondialdehyde (MDA); 100 µM) was 1.102±0.051 U/mgprot and the “SOD Activity (U/mgprot)” value ([4]; 1 µM) was 88.875±2.654 U/mgprot. For the same substance, the “SOD Activity (U/mgprot)” value ([4]; 10 µM) was 99.499±2.912 U/mgprot, the “SOD Activity (U/mgprot)” value ([4]; 100 µM) was 98.908±2.677 U/mgprot and the anti-UV damage ability [5] was “certain anti-UV damage ability”.
With Ac-LQSSLRALRQMGGGTKAAA [P6] the “antioxidant capacity of cells” value [1] was “improve the antioxidant capacity of cells more significantly”, the antioxidant activity [1] was “certain antioxidant activity” and the “TNF-α activity (pg/mgprot)” value (TNF-α; 1 µM) was 8.535±0.523 pg/mgprot. The “TNF-α activity (pg/mgprot)” value (TNF-α; 10 µM) was 9.907±0.215 pg/mgprot, the “TNF-α activity (pg/mgprot)” value (TNF-α; 100 µM) was 9.747±0.352 pg/mgprot and the anti-inflammatory efficacy [2] was “better anti-inflammatory efficacy”. The anti-inflammatory ability [2] was “certain anti-inflammatory ability”, the “CAT Activity (U/mgprot)” value (catalase (CAT); 1 µM) was 3.395±0.084 U/mgprot and the “CAT Activity (U/mgprot)” value (catalase (CAT); 10 µM) was 3.327±0.069 U/mgprot. The “CAT Activity (U/mgprot)” value (catalase (CAT); 100 µM) was 2.628±0.024 U/mgprot, the “MDA Activity (U/mgprot)” value (malondialdehyde (MDA); 1 µM) was 1.057±0.090 U/mgprot and the “MDA Activity (U/mgprot)” value (malondialdehyde (MDA); 10 µM) was 1.067±0.032 U/mgprot. The “MDA Activity (U/mgprot)” value (malondialdehyde (MDA); 100 µM) was 1.138±0.099 U/mgprot, the “SOD Activity (U/mgprot)” value ([4]; 1 µM) was 101.823±0.926 U/mgprot and the “SOD Activity (U/mgprot)” value ([4]; 10 µM) was 95.147±0.370 U/mgprot. The “SOD Activity (U/mgprot)” value ([4]; 100 µM) was 85.499±0.392 U/mgprot, the “slowing of UV irradiation-induced inhibition of cell growth” value [5] was “slow down the UV irradiation-induced inhibition of cell growth more significantly” and the anti-UV damage ability [5] was “certain anti-UV damage ability”.
